Measurements as given in PMC8834197.
Results are given in words; binding and its absence hold for the method and conditions named. For some assays here: In cells and extracts the contact can be indirect. Some results given as binding are weak or reduced against the parent protein; the word gives no strength.

The chains behind the UniProt entries cited, without tags or fusion partners. Where a name states a change or a piece, a line headed by the entry shows the natural chain unless it says otherwise. Residues count along the entry.
UniProt P48436: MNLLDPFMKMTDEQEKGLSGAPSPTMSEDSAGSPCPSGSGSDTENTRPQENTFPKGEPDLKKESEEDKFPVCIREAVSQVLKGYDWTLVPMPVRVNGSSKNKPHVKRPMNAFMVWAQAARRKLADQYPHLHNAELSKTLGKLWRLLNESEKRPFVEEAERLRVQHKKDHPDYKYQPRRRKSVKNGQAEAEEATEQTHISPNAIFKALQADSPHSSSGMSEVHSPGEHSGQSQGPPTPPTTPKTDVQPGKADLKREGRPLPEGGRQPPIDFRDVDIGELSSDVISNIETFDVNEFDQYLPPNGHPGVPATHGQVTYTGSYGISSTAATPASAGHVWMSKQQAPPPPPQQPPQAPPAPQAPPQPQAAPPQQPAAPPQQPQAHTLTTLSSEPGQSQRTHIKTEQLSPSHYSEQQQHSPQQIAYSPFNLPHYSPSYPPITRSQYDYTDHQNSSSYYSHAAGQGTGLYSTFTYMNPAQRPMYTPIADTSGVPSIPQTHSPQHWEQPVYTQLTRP
LexA-SOX9 truncated fragment Met1-Phe204: residues 1-204 of P48436
LexA-SOX9 truncated fragment Lys205-Ser386: residues 205-386 of P48436
LexA-SOX9 truncated fragment Ser387-Pro509: residues 387-509 of P48436
UniProt Q13546: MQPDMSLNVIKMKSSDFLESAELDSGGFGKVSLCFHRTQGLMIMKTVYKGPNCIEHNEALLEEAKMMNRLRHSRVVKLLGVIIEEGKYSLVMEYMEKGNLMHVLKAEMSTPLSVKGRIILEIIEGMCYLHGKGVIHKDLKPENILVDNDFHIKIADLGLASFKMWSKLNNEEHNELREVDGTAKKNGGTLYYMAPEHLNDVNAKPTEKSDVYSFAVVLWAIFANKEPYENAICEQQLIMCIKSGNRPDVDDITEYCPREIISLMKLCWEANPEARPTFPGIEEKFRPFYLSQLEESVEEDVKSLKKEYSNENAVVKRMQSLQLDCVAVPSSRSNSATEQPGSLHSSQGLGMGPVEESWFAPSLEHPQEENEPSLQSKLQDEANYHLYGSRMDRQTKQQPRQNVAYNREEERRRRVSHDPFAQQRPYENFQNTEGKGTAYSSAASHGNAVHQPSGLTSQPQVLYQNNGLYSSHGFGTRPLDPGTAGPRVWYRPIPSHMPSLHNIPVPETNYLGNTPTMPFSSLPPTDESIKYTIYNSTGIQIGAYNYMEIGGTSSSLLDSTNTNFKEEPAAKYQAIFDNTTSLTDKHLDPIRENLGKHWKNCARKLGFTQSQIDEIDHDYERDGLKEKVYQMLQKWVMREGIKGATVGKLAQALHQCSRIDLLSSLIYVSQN
B42-RIPK1 truncated motif Thr580-Asn671: residues 580-671 of Q13546

Columns and labels:
[1] = molecular target: LexA-SOX9 truncated fragment Lys205-Ser386 (human) (UniProt P48436); experiment: two-hybrid; LexA bait (pGilda) and B42 prey (pJG4-5) in EGY48 yeast; growth on medium lacking leucine with 2% galactose at 30 °C, X-gal and ONPG β-galactosidase analysis
[2] = molecular target: LexA-SOX9 truncated fragment Met1-Phe204 (human) (UniProt P48436); experiment: as above
[3] = molecular target: LexA-SOX9 truncated fragment Ser387-Pro509 (human) (UniProt P48436); experiment: as above
[4] = molecular target: LexA-SOX9 (full), human SOX9 in the pGilda/LexA bait vector (human) (UniProt P48436); experiment: as above
[5] = molecular target: endogenous SOX9 (human (endogenous in MDAH 2774 by the text, HEK 293 by the legend)) (UniProt P48436); experiment: co-IP; endogenous proteins; entire cell lysates (RIPA buffer) incubated with anti-SOX9 or anti-RIPK1 antibody overnight at 4 °C, protein A/G agarose beads, immunoblot

binding [1]	binding [2]	binding [3]	binding [4]	binding [5]	Substance
no binding	no binding	binds	binds	–	B42-RIPK1 truncated motif Thr580-Asn671 (from UniProt Q13546-1 580-671) (domain or fragment)
–	–	–	–	binds	endogenous RIPK1 (from UniProt Q13546 1-671)
